# The BET-seq Pho4 binding data (Le et al. 2018)
# The other results are listed elsewhere or left out. Values were computed here from the reads of four pooled replicates and scatter widely.
# Target: T1, Pho4 (S. cerevisiae) (UniProt P07270)
# T1 sequence: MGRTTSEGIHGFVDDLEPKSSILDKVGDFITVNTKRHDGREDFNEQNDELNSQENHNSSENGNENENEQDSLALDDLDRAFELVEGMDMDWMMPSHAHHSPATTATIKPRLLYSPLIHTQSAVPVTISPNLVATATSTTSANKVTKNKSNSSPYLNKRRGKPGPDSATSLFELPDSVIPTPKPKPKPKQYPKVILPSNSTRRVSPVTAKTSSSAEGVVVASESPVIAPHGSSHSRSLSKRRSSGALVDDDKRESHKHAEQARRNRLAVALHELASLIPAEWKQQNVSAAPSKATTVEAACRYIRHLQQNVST
# Assay: relative binding free energy (BET-seq); higher = weaker binding
# Conditions: reference: library average
row,Sequence,relative binding free energy
1,GTTGCCACGTGTAGAG,-0.09 kcal/mol
2,TCTTACACGTGGTGGC,0.11 kcal/mol
3,CGGTTCACGTGCGTTT,0.31 kcal/mol
4,CGGGTCACGTGGGTCA,0.03 kcal/mol
5,TTTGACACGTGAGTCG,0.1 kcal/mol
6,TGGTGCACGTGTAAAC,0.06 kcal/mol
7,AGACTCACGTGTTGTT,0.21 kcal/mol
8,GGTTCCACGTGGGGCG,0.01 kcal/mol
9,CGATGCACGTGCGGTT,0.15 kcal/mol
10,GATGCCACGTGCGGGG,-0.2 kcal/mol
11,GTCTACACGTGGATGT,0.11 kcal/mol
12,TAGGGCACGTGTCAGT,0.02 kcal/mol
13,TGGTGCACGTGTGGCT,0.05 kcal/mol
14,GATGACACGTGGTTGG,0.01 kcal/mol
15,TGGTACACGTGTGTAA,0.02 kcal/mol
16,TTTGCCACGTGTATTG,-0.11 kcal/mol
17,AGGGGCACGTGGCGGC,-0.18 kcal/mol
18,CTGCGCACGTGTGGGC,-0.02 kcal/mol
19,TCAATCACGTGGGGGT,0.07 kcal/mol
20,TGTGCCACGTGGTGGT,-0.19 kcal/mol
21,TTTCGCACGTGACAGT,0.09 kcal/mol
22,TGGATCACGTGGATGC,0.12 kcal/mol
23,TTGGGCACGTGGAAGC,0.09 kcal/mol
24,TGTAGCACGTGGAACT,0.05 kcal/mol
25,AGATTCACGTGATGCG,0.29 kcal/mol

row,Sequence,relative binding free energy
1,GTTCTCACGTGTGAGG,0.27 kcal/mol
2,GGGGGCACGTGAATGA,0.15 kcal/mol
3,TTGGTCACGTGAGAGA,0.42 kcal/mol
4,GTTATCACGTGATGGC,0.45 kcal/mol
5,ATGTACACGTGTGTTA,0.05 kcal/mol
6,AAAGGCACGTGGTGCG,-0.2 kcal/mol
7,ATTTGCACGTGTCGGG,-0.04 kcal/mol
8,CGTAGCACGTGGCAGG,-0.16 kcal/mol
9,GGTATCACGTGTGTTT,0.21 kcal/mol
10,TTTCACACGTGGCATT,0.09 kcal/mol
11,GTCGTCACGTGTATAT,0.13 kcal/mol
12,TTAGGCACGTGTTACT,-0.16 kcal/mol
13,CGAAACACGTGTGGGG,0.04 kcal/mol
14,TTTGACACGTGAGTAG,0.02 kcal/mol
15,TGAACCACGTGTTTAT,0.15 kcal/mol
16,GTATTCACGTGGTGAC,0.24 kcal/mol
17,TTTTGCACGTGGCTCT,-0.11 kcal/mol
18,ATTTGCACGTGAATTA,0.23 kcal/mol
19,CAGTTCACGTGGGGCA,0.03 kcal/mol
20,GTAGCCACGTGGGTAA,-0.11 kcal/mol
21,TGGAACACGTGTTTAG,-0.02 kcal/mol
22,AAGTTCACGTGGTACG,0.22 kcal/mol
23,GTCGTCACGTGTGTTA,0.16 kcal/mol
24,TTATTCACGTGAGCTT,0.37 kcal/mol
25,TTACGCACGTGAGGGG,0.13 kcal/mol

row,Sequence,relative binding free energy
1,TGGATCACGTGGTGAG,0.08 kcal/mol
2,TATTGCACGTGGCGGC,-0.01 kcal/mol
3,ATGTTCACGTGAAGCG,0.26 kcal/mol
4,GTAAGCACGTGGGTGA,-0.03 kcal/mol
5,GTGCGCACGTGGAGAG,0.03 kcal/mol
6,AGGTTCACGTGGCGTC,0.19 kcal/mol
7,GAAAGCACGTGGGGTA,-0.21 kcal/mol
8,ATATTCACGTGCGTGA,0.21 kcal/mol
9,GGAGACACGTGTACGG,0.18 kcal/mol
10,AATGGCACGTGTATAT,-0.1 kcal/mol
11,TGGGTCACGTGCGGCT,0.01 kcal/mol
12,AAAGTCACGTGGGGTT,0.07 kcal/mol
13,GTGGACACGTGTATTA,0.11 kcal/mol
14,GGTTACACGTGTGTCA,0.14 kcal/mol
15,TGAGCCACGTGGATGG,-0.22 kcal/mol
16,ACGTGCACGTGAATGT,0.11 kcal/mol
17,ATGGACACGTGCTAGT,0.08 kcal/mol
18,ATGTACACGTGATTTA,0.19 kcal/mol
19,AACGGCACGTGAGGTG,0.22 kcal/mol
20,AGTGTCACGTGAGAGG,0.18 kcal/mol
21,TATTACACGTGTATGA,0.1 kcal/mol
22,GAGGCCACGTGAGGGT,0.08 kcal/mol
23,AATCGCACGTGGGGGT,-0.24 kcal/mol
